US9873709B2 (priority 2013, dated 2018)

The molecules below were run against isolated recombinant JAK1 kinase domain (Homo sapiens (Human), UniProt P23458) (assay: biochemical).
For `O=C(c1ccc(Nc2nc3c(N4CCC(O)(c5ccc(Cl)cc5)CC4)cccn3n2)cc1)N1CCC2(CCCN2)C1` (centres unmarked) [Example 1-208, [4-[[8-[4-(4-chlorophenyl)-4-hydroxy-1-piperidyl]-[1,2,4]triazolo[1,5-a]pyridin-2-yl]amino]phenyl]-(1,7-diazaspiro[4.4]nonan-7-yl)methanone], the Ki was 2.31 nM. With `O=C(c1ccc(Nc2nc3c(N4CCC(O)(c5ccc(Cl)cc5)CC4)cccn3n2)cc1)N1C[C@H]2CN[C@H]2C1` [Example 1-232, [4-[[8-[4-(4-chlorophenyl)-4-hydroxy-1-piperidyl]-[1,2,4]triazolo[1,5-a]pyridin-2-yl]amino]phenyl]-[(1R,5R)-3,6-diazabicyclo[3.2.0]heptan-3-yl]methanone] the Ki was 2.83 nM. Molecule `CNC1CN(C(=O)c2ccc(Nc3nc4c(N5CCC(CO)(c6ccc(Cl)cc6)CC5)cccn4n3)cc2)C1` [Example 1-283, [4-[[8-[4-(4-chlorophenyl)-4-(hydroxymethyl)-1-piperidyl]-[1,2,4]triazolo[1,5-a]pyridin-2-yl]amino]phenyl]-[3-(methylamino)azetidin-1-yl]methanone] has a Ki of 0.18 nM. Work on `CN1CCC(N(C)C(=O)c2ccc(Nc3nc4c(N5C[C@@H]6C[C@](O)(c7ccccc7)C[C@@H]6C5)cccn4n3)cc2)CC1` [Example 1-292] yielded a Ki of 142 nM. In the case of `CCOC(=O)N1CC=C(c2cccn3nc(Nc4ccc(C(=O)N5CCO[C@@H]6CNC[C@@H]65)cc4)nc23)CC1` [Example 2-72, ethyl 4-[2-[4-[(4aS,7aR)-3,4a,5,6,7,7a-hexahydro-2H-pyrrolo[3,4-b][1,4]oxazine-4-carbonyl]anilino]-[1,2,4]triazolo[1,5-a]pyridin-8-yl]-3,6-dihydro-2H-pyridine-1-carboxylate], the Ki is reported as 5.01 nM. With `CCOC(=O)N1CC=C(c2cccn3nc(Nc4ccc(C(=O)NCC5CCCCN5)cc4)nc23)CC1` (centres unmarked) [Example 2-114, ethyl 4-[2-[4-(2-piperidylmethylcarbamoyl)anilino]-[1,2,4]triazolo[1,5-a]pyridin-8-yl]-3,6-dihydro-2H-pyridine-1-carboxylate] the Ki was 1.73 nM. With `O=C(CCC(F)(F)F)N1CC=C(c2cccn3nc(Nc4ccc(C(=O)N5CCCC5c5cccnc5)cc4)nc23)CC1` (centres unmarked) [Example 2-145, 4,4,4-trifluoro-1-[4-[2-[4-[2-(3-pyridyl)pyrrolidine-1-carbonyl]anilino]-[1,2,4]triazolo[1,5-a]pyridin-8-yl]-3,6-dihydro-2H-pyridin-1-yl]butan-1-one] the Ki was 0.66 nM. Work on `CC1CCN(CCNC(=O)c2ccc(Nc3nc4c(C5=CCN(C(=O)CCC(F)(F)F)CC5)cccn4n3)cc2)CC1` [Example 2-147, N-[2-(4-methyl-1-piperidyl)ethyl]-4-[[8-[1-(4,4,4-trifluorobutanoyl)-3,6-dihydro-2H-pyridin-4-yl]-[1,2,4]triazolo[1,5-a]pyridin-2-yl]amino]benzamide] yielded a Ki of 6.81 nM. In the case of `CN1CCC(N(C)C(=O)c2ccc(Nc3nc4c(C5=CCN(C(=O)NCc6ccccc6)CC5)cccn4n3)cc2)CC1` [Example 2-222, N-benzyl-4-[2-[4-[methyl-(1-methyl-4-piperidyl)carbamoyl]anilino]-[1,2,4]triazolo[1,5-a]pyridin-8-yl]-3,6-dihydro-2H-pyridine-1-carboxamide], the Ki is reported as 4.13 nM. With `CCOC(=O)N1CC=C(c2cccn3nc(Nc4ccc(C(=O)N5CC[C@H]6CN(C)C[C@H]65)cc4)nc23)CC1` [Example 2-244, ethyl 4-[2-[4-[(3aS,6aS)-5-methyl-2,3,3a,4,6,6a-hexahydropyrrolo[2,3-c]pyrrole-1-carbonyl]anilino]-[1,2,4]triazolo[1,5-a]pyridin-8-yl]-3,6-dihydro-2H-pyridine-1-carboxylate] the Ki was 3.28 nM. For `CCOC(=O)N1CC=C(c2cccn3nc(Nc4ccc(C(=O)N[C@H]5CCCNC5)cc4)nc23)CC1` [Example 2-250, ethyl 4-[2-[4-[[(3S)-3-piperidyl]carbamoyl]anilino]-[1,2,4]triazolo[1,5-a]pyridin-8-yl]-3,6-dihydro-2H-pyridine-1-carboxylate], the Ki was 1.34 nM. For `O=C(CCC(F)(F)F)N1CC=C(c2cccn3nc(Nc4ccc(C(=O)N5CCCC56CCNCC6)cc4)nc23)CC1` [Example 2-258, 1-[4-[2-[4-(1,8-diazaspiro[4.5]decane-1-carbonyl)anilino]-[1,2,4]triazolo[1,5-a]pyridin-8-yl]-3,6-dihydro-2H-pyridin-1-yl]-4,4,4-trifluoro-butan-1-one], the Ki was 1.94 nM. In the case of `O=C(CCC(F)(F)F)N1CC=C(c2cccn3nc(Nc4ccc(C(=O)N(Cc5ccccn5)C5CC5)cc4)nc23)CC1` [Example 2-272, N-cyclopropyl-N-(2-pyridylmethyl)-4-[[8-[1-(4,4,4-trifluorobutanoyl)-3,6-dihydro-2H-pyridin-4-yl]-[1,2,4]triazolo[1,5-a]pyridin-2-yl]amino]benzamide], the Ki is reported as 0.76 nM. In the case of `CCOC(=O)N1CC=C(c2cccn3nc(Nc4ccc(C(=O)NCC5CC56CCNCC6)cc4)nc23)CC1` (centres unmarked) [Example 2-306, ethyl 4-[2-[4-(6-azaspiro[2.5]octan-2-ylmethylcarbamoyl)anilino]-[1,2,4]triazolo[1,5-a]pyridin-8-yl]-3,6-dihydro-2H-pyridine-1-carboxylate], the Ki is reported as 1.44 nM. In the case of `CN1CCC(N(C)C(=O)c2ccc(Nc3nc4c(C5=CCN(C(=O)C6CCCCC6)CC5)cccn4n3)cc2)CC1` [Example 2-348, 4-[[8-[1-(cyclohexanecarbonyl)-3,6-dihydro-2H-pyridin-4-yl]-[1,2,4]triazolo[1,5-a]pyridin-2-yl]amino]-N-methyl-N-(1-methyl-4-piperidyl)benzamide], the Ki is reported as 4.93 nM. In the case of `CN1CCC(N(C)C(=O)c2ccc(Nc3nc4c(C5=CCN(C(=O)OCc6ccccc6)CC5)cccn4n3)cc2)CC1` [Example 2-351, benzyl 4-[2-[4-[methyl-(1-methyl-4-piperidyl)carbamoyl]anilino]-[1,2,4]triazolo[1,5-a]pyridin-8-yl]-3,6-dihydro-2H-pyridine-1-carboxylate], the Ki is reported as 1.95 nM. `CCOC(=O)N1CC=C(c2cccn3nc(Nc4ccc(C(=O)N5CCC6(CNC6)C5)cc4)nc23)CC1` [Example 2-375, ethyl 4-[2-[4-(2,6-diazaspiro[3.4]octane-6-carbonyl)anilino]-[1,2,4]triazolo[1,5-a]pyridin-8-yl]-3,6-dihydro-2H-pyridine-1-carboxylate] gave a Ki of 3.18 nM. `O=C(CCC(F)(F)F)N1CC=C(c2cccn3nc(Nc4ccc(C(=O)N5CCC6(CC5)CNCCO6)cc4)nc23)CC1` [Example 2-380, 4,4,4-trifluoro-1-[4-[2-[4-(1-oxa-4,9-diazaspiro[5.5]undecane-9-carbonyl)anilino]-[1,2,4]triazolo[1,5-a]pyridin-8-yl]-3,6-dihydro-2H-pyridin-1-yl]butan-1-one] showed a Ki of 1.41 nM. Molecule `CC(C)C(=O)N1CC=C(c2cccn3nc(Nc4ccc(C(=O)N(C)C5CCN(C)CC5)cc4)nc23)CC1` [Example 2-410, N-methyl-N-(1-methyl-4-piperidyl)-4-[[8-[1-(2-methylpropanoyl)-3,6-dihydro-2H-pyridin-4-yl]-[1,2,4]triazolo[1,5-a]pyridin-2-yl]amino]benzamide] has a Ki of 9.12 nM. In the case of `CCOC(=O)N1CC=C(c2cccn3nc(Nc4ccc(C(=O)N5CCN(CCC#N)CC5)cc4)nc23)CC1` [Example 2-417, ethyl 4-[2-[4-[4-(2-cyanoethyl)piperazine-1-carbonyl]anilino]-[1,2,4]triazolo[1,5-a]pyridin-8-yl]-3,6-dihydro-2H-pyridine-1-carboxylate], the Ki is reported as 1.23 nM. `CN1C2COCC1CN(C(=O)c1ccc(Nc3nc4c(C5=CCN(C(=O)CCC(F)(F)F)CC5)cccn4n3)cc1)C2` [Example 2-458, 4,4,4-trifluoro-1-[4-[2-[4-(9-methyl-3-oxa-7,9-diazabicyclo[3.3.1]nonane-7-carbonyl)anilino]-[1,2,4]triazolo[1,5-a]pyridin-8-yl]-3,6-dihydro-2H-pyridin-1-yl]butan-1-one] showed a Ki of 1.15 nM. `O=C(CCC(F)(F)F)N1CC=C(c2cccn3nc(Nc4ccc(C(=O)N5CCC(Cc6ccccn6)C5)cc4)nc23)CC1` (centres unmarked) [Example 2-471, 4,4,4-trifluoro-1-[4-[2-[4-[3-(2-pyridylmethyl)pyrrolidine-1-carbonyl]anilino]-[1,2,4]triazolo[1,5-a]pyridin-8-yl]-3,6-dihydro-2H-pyridin-1-yl]butan-1-one] was tested, and the Ki was 0.83 nM. With `CN1CCC(N(C)C(=O)c2ccc(Nc3nc4c(C5=CCN(S(=O)(=O)N6CC(C)(C)C6)CC5)cccn4n3)cc2)CC1` [Example 2-479, 4-[[8-[1-(3,3-dimethylazetidin-1-yl)sulfonyl-3,6-dihydro-2H-pyridin-4-yl]-[1,2,4]triazolo[1,5-a]pyridin-2-yl]amino]-N-methyl-N-(1-methyl-4-piperidyl)benzamide] the Ki was 18 nM.
